Biological target: T1, HA-Kv7.3 (Kv7.3 with an extracellular hemagglutinin epitope) (human, UniProt O43525 1-872)
T1 construct: Kv7.3 (KCNQ3), human, cDNA NM004519; also called pcDNA3-HA-Kv7.3; source: HEK293T, transfected (pcDNA3), in lysate
T1 sequence (looked up): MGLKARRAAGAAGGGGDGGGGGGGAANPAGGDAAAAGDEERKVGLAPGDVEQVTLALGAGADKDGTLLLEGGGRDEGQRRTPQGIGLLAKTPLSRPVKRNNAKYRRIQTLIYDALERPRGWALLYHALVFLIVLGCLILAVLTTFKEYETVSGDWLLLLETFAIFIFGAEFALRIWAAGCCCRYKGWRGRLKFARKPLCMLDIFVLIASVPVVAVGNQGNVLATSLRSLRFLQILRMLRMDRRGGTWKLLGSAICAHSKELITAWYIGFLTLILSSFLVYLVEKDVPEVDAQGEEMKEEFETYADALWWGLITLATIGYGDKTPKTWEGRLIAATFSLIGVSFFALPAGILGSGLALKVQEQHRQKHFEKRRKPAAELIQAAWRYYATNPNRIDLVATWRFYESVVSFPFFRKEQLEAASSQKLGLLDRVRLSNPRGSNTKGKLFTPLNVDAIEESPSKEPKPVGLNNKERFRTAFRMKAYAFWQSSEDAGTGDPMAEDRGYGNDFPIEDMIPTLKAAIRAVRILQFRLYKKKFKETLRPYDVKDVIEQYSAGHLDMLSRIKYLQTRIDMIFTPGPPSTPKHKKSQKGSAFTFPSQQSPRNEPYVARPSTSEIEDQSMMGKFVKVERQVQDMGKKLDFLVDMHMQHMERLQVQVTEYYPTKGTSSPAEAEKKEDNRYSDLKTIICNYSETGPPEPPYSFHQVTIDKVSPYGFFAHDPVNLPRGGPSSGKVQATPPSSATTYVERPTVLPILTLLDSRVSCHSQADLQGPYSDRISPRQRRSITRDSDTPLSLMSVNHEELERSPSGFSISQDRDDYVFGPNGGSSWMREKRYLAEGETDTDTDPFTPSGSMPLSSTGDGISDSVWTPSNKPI
Assay: co-IP; HEK293T co-transfected with 1 μg HA-Kv7.3 and 0.5 μg CFP-Kv7.2 WT or I340E, or 1 μg CFP-Kv7.2 W344R; 1% Triton X-100 IP buffer; rabbit anti-HA on protein A/G agarose, overnight 4 °C; blots with anti-GFP and anti-HA, normalised to WT
Conditions: partners not purified

B1: CFP-tagged Kv7.2 I340E subunit (natural protein, human)
chain: MVQKSRNGGVYPGPSGEKKLKVGFVGLDPGAPDSTRDGALLIAGSEAPKRGSILSKPRAGGAGAGKPPKRNAFYRKLQNFLYNVLERPRGWAFIYHAYVFLLVFSCLVLSVFSTIKEYEKSSEGALYILEIVTIVVFGVEYFVRIWAAGCCCRYRGWRGRLKFARKPFCVIDIMVLIASIAVLAAGSQGNVFATSALRSLRFLQILRMIRMDRRGGTWKLLGSVVYAHSKELVTAWYIGFLCLILASFLVYLAEKGENDHFDTYADALWWGLITLTTIGYGDKYPQTWNGRLLAATFTLIGVSFFALPA[about 350 residues with changes cut from this listing]RHGCIVKIVRSSSSTGQKNFSAPPAAPPVQCPPSTSWQPQSHPRQGHGTSPVGDHGSLVRIPPPPAHERSLSAYGGGNRASMEFLRQEDTPGCRPPEGNLRDSDTSISIPSVDHEELERSFSGFSISQSKENLDALNSCYAAVAPCAKVRPYIAEGESDTDSDLCTPCGPPPRSATGEGPFGDVGWAGPRK
notes: Whole subunit implied; also called CFP-Kv7.2 I340E; source: HEK293T, transfected (pcDNA3.1), in lysate; not shown: CFP, N-terminal, kept
  co-IP signal relative to WT: 84.3%

B2: CFP-tagged Kv7.2 W344R subunit (natural protein, human)
chain: MVQKSRNGGVYPGPSGEKKLKVGFVGLDPGAPDSTRDGALLIAGSEAPKRGSILSKPRAGGAGAGKPPKRNAFYRKLQNFLYNVLERPRGWAFIYHAYVFLLVFSCLVLSVFSTIKEYEKSSEGALYILEIVTIVVFGVEYFVRIWAAGCCCRYRGWRGRLKFARKPFCVIDIMVLIASIAVLAAGSQGNVFATSALRSLRFLQILRMIRMDRRGGTWKLLGSVVYAHSKELVTAWYIGFLCLILASFLVYLAEKGENDHFDTYADALWWGLITLTTIGYGDKYPQTWNGRLLAATFTLIGVSFFALPA[about 350 residues with changes cut from this listing]RHGCIVKIVRSSSSTGQKNFSAPPAAPPVQCPPSTSWQPQSHPRQGHGTSPVGDHGSLVRIPPPPAHERSLSAYGGGNRASMEFLRQEDTPGCRPPEGNLRDSDTSISIPSVDHEELERSFSGFSISQSKENLDALNSCYAAVAPCAKVRPYIAEGESDTDSDLCTPCGPPPRSATGEGPFGDVGWAGPRK
notes: Whole subunit implied; also called CFP-Kv7.2-W344R; CFP-KCNQ[…]R; source: HEK293T, transfected (pcDNA3.1), in lysate; not shown: mCFP, N-terminal, kept
  co-IP signal relative to WT: 76.4%

From paper PMC8138981, “An epilepsy-causing mutation leads to co-translational misfolding of the Kv7.2 channel” (BMC Biology, 2021)
